T1: recombinant human IL4 (human, UniProt P05112 25-153)
T1 construct: also called Antigen1
T1 sequence (looked up): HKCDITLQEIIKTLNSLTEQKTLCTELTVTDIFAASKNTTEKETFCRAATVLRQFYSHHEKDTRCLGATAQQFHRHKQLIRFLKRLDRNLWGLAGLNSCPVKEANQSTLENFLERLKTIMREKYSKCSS


The binders below were run against T1, recombinant human IL4 (assay: SPR, Biacore 3000; CODV-Ig captured by anti-human Fc, antigen as analyte).

| Kd | Binder |
| --- | --- |
| 6 pM | CODV-Ig Batch ID 113 (IL4 × IL13 on LC; L1=1, L2=2, L3=0, L4=0) (bispecific antibody) heavy: EVQLKESGPGLVAPGGSLSITCTVSGFSLTDSSINWVRQPPGKGLEWLGMIWGDGRIDYADALKSRLSISKDSSKSQVFLEMTSLRTDDTATYYCARDGYFPYAMDFWGQGTSVTVSSQVQLQQSGPELVKPGASVKISCKASGYSFTSYWIHWIKQRPGQGLEWIGMIDPSDGETRLNQRFQGRATLTVDESTSTAYMQLRSPTSEDSAVYYCTRLKEYGNYDSFYFDVWGAGTLVTVSS[letters of human IgG1 constant region not shown] light: DIQMTQSPASLSVSVGDTITLTCHASQNIDVWLSWFQQKPGNIPKLLIYKASNLHTGVPSRFSGSGSGTGFTLTISSLQPEDIATYYCQQAHSYPFTFGGGTKLEIKGDIVLTQSPASLAVSLGQRATISCRASESVDSYGQSYMHWYQQKAGQPPKLLIYLASNLESGVPARFSGSGSRTDFTLTIDPVQAEDAATYYCQQNAEDSRTFGGGTKLEIKGGRTVAAPSVFIFPPSDEQLKSGTASVVCLLNNFYPREAKVQWKVDNALQSGNSQESVTEQDSKDSTYSLSSTLTLSKADYEKHKVYACEVTHQGLSSPVTKSFNRGEC |
| 9 pM | CODV-Ig Batch ID 126 (IL4 × IL13 on LC; L1=1, L2=2, L3=6, L4=7) (bispecific antibody, human IgG1, kappa, also called LC4:HC1) heavy: EVQLKESGPGLVAPGGSLSITCTVSGFSLTDSSINWVRQPPGKGLEWLGMIWGDGRIDYADALKSRLSISKDSSKSQVFLEMTSLRTDDTATYYCARDGYFPYAMDFWGQGTSVTVSSGGGGGGQVQLQQSGPELVKPGASVKISCKASGYSFTSYWIHWIKQRPGQGLEWIGMIDPSDGETRLNQRFQGRATLTVDESTSTAYMQLRSPTSEDSAVYYCTRLKEYGNYDSFYFDVWGAGTLVTVSSGGGGGGG[letters of human IgG1 constant region not shown] light: DIQMTQSPASLSVSVGDTITLTCHASQNIDVWLSWFQQKPGNIPKLLIYKASNLHTGVPSRFSGSGSGTGFTLTISSLQPEDIATYYCQQAHSYPFTFGGGTKLEIKGDIVLTQSPASLAVSLGQRATISCRASESVDSYGQSYMHWYQQKAGQPPKLLIYLASNLESGVPARFSGSGSRTDFTLTIDPVQAEDAATYYCQQNAEDSRTFGGGTKLEIKGGRTVAAPSVFIFPPSDEQLKSGTASVVCLLNNFYPREAKVQWKVDNALQSGNSQESVTEQDSKDSTYSLSSTLTLSKADYEKHKVYACEVTHQGLSSPVTKSFNRGEC |
| 1 pM | CODV-Ig Batch ID 122 (IL4 × IL13 on LC; L1=1, L2=2, L3=2, L4=7) (bispecific antibody, human IgG1, kappa, also called LC4:HC3) heavy: EVQLKESGPGLVAPGGSLSITCTVSGFSLTDSSINWVRQPPGKGLEWLGMIWGDGRIDYADALKSRLSISKDSSKSQVFLEMTSLRTDDTATYYCARDGYFPYAMDFWGQGTSVTVSSGGQVQLQQSGPELVKPGASVKISCKASGYSFTSYWIHWIKQRPGQGLEWIGMIDPSDGETRLNQRFQGRATLTVDESTSTAYMQLRSPTSEDSAVYYCTRLKEYGNYDSFYFDVWGAGTLVTVSSGGGGGGG[letters of human IgG1 constant region not shown] light: DIQMTQSPASLSVSVGDTITLTCHASQNIDVWLSWFQQKPGNIPKLLIYKASNLHTGVPSRFSGSGSGTGFTLTISSLQPEDIATYYCQQAHSYPFTFGGGTKLEIKGDIVLTQSPASLAVSLGQRATISCRASESVDSYGQSYMHWYQQKAGQPPKLLIYLASNLESGVPARFSGSGSRTDFTLTIDPVQAEDAATYYCQQNAEDSRTFGGGTKLEIKGGRTVAAPSVFIFPPSDEQLKSGTASVVCLLNNFYPREAKVQWKVDNALQSGNSQESVTEQDSKDSTYSLSSTLTLSKADYEKHKVYACEVTHQGLSSPVTKSFNRGEC |
| 8 pM | CODV-Ig Batch ID 125 (IL4 × IL13 on LC; L1=1, L2=2, L3=6, L4=4) (bispecific antibody, human IgG1, kappa, also called LC4:HC2) heavy: EVQLKESGPGLVAPGGSLSITCTVSGFSLTDSSINWVRQPPGKGLEWLGMIWGDGRIDYADALKSRLSISKDSSKSQVFLEMTSLRTDDTATYYCARDGYFPYAMDFWGQGTSVTVSSGGGGGGQVQLQQSGPELVKPGASVKISCKASGYSFTSYWIHWIKQRPGQGLEWIGMIDPSDGETRLNQRFQGRATLTVDESTSTAYMQLRSPTSEDSAVYYCTRLKEYGNYDSFYFDVWGAGTLVTVSSGGGG[letters of human IgG1 constant region not shown] light: DIQMTQSPASLSVSVGDTITLTCHASQNIDVWLSWFQQKPGNIPKLLIYKASNLHTGVPSRFSGSGSGTGFTLTISSLQPEDIATYYCQQAHSYPFTFGGGTKLEIKGDIVLTQSPASLAVSLGQRATISCRASESVDSYGQSYMHWYQQKAGQPPKLLIYLASNLESGVPARFSGSGSRTDFTLTIDPVQAEDAATYYCQQNAEDSRTFGGGTKLEIKGGRTVAAPSVFIFPPSDEQLKSGTASVVCLLNNFYPREAKVQWKVDNALQSGNSQESVTEQDSKDSTYSLSSTLTLSKADYEKHKVYACEVTHQGLSSPVTKSFNRGEC |
| 6 pM | CODV-Ig Batch ID 124 (IL4 × IL13 on LC; L1=1, L2=2, L3=4, L4=7) (bispecific antibody, human IgG1, kappa, also called LC4:HC5) heavy: EVQLKESGPGLVAPGGSLSITCTVSGFSLTDSSINWVRQPPGKGLEWLGMIWGDGRIDYADALKSRLSISKDSSKSQVFLEMTSLRTDDTATYYCARDGYFPYAMDFWGQGTSVTVSSGGGGQVQLQQSGPELVKPGASVKISCKASGYSFTSYWIHWIKQRPGQGLEWIGMIDPSDGETRLNQRFQGRATLTVDESTSTAYMQLRSPTSEDSAVYYCTRLKEYGNYDSFYFDVWGAGTLVTVSSGGGGGGG[letters of human IgG1 constant region not shown] light: DIQMTQSPASLSVSVGDTITLTCHASQNIDVWLSWFQQKPGNIPKLLIYKASNLHTGVPSRFSGSGSGTGFTLTISSLQPEDIATYYCQQAHSYPFTFGGGTKLEIKGDIVLTQSPASLAVSLGQRATISCRASESVDSYGQSYMHWYQQKAGQPPKLLIYLASNLESGVPARFSGSGSRTDFTLTIDPVQAEDAATYYCQQNAEDSRTFGGGTKLEIKGGRTVAAPSVFIFPPSDEQLKSGTASVVCLLNNFYPREAKVQWKVDNALQSGNSQESVTEQDSKDSTYSLSSTLTLSKADYEKHKVYACEVTHQGLSSPVTKSFNRGEC |
| 35 pM | CODV-Ig Batch ID 102 (IL4 × IL13 on LC; L1=0, L2=0, L3=2, L4=4) (bispecific antibody) heavy: EVQLKESGPGLVAPGGSLSITCTVSGFSLTDSSINWVRQPPGKGLEWLGMIWGDGRIDYADALKSRLSISKDSSKSQVFLEMTSLRTDDTATYYCARDGYFPYAMDFWGQGTSVTVSSGGQVQLQQSGPELVKPGASVKISCKASGYSFTSYWIHWIKQRPGQGLEWIGMIDPSDGETRLNQRFQGRATLTVDESTSTAYMQLRSPTSEDSAVYYCTRLKEYGNYDSFYFDVWGAGTLVTVSSGGGG[letters of human IgG1 constant region not shown] light: DIQMTQSPASLSVSVGDTITLTCHASQNIDVWLSWFQQKPGNIPKLLIYKASNLHTGVPSRFSGSGSGTGFTLTISSLQPEDIATYYCQQAHSYPFTFGGGTKLEIKDIVLTQSPASLAVSLGQRATISCRASESVDSYGQSYMHWYQQKAGQPPKLLIYLASNLESGVPARFSGSGSRTDFTLTIDPVQAEDAATYYCQQNAEDSRTFGGGTKLEIKRTVAAPSVFIFPPSDEQLKSGTASVVCLLNNFYPREAKVQWKVDNALQSGNSQESVTEQDSKDSTYSLSSTLTLSKADYEKHKVYACEVTHQGLSSPVTKSFNRGEC |

— patent US20180155450A1 (Sanofi, published 2018)
